Out of some 420,000 compounds screened, about 50,000 (12%) were called active. The inconclusive results got no clear call from the source; some entries with a clear call stand among them for comparison. Calls follow the shape of the dose curve; as a rule, active = well fitted inhibition curve with a large enough effect; inconclusive = small, poorly fitted or top-dose-only effect; inactive = flat fitted curve, though single readings scatter. No potency is given beside an inconclusive call; the fits are too rough.
Assay: qHTS for Inhibitors of human tyrosyl-DNA phosphodiesterase 1 (TDP1): qHTS in cells in presence of CPT; also: nearly all actives have a fitted effect of over 55% in size
Details: chicken DT40 Tdp1-/-;hTDP1 cells + 20 nM CPT, ATP luminescence, 48 h; activity change, negative = growth inhibition: at 46.2 µM (top of the series) unless noted
How it was run: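 Chicken DT40 Tdp1-/- cells stably complemented with human TDP1 were seeded at 400 cells/well in medium containing 20 nM camptothecin, exposed to pin-transferred compounds, and grown at 37 °C for at least 48 hr. Viability was read as ATP luminescence.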
% is scaled to controls: 0 for no effect and ±100 for the full control effect; potency is read from the fitted curve at half-maximal effect; tags tell the direction and shape of the fitted curve.

SMILES | Potency | activity change, negative = growth inhibition
O=C(N/N=C\c1c[nH]c2ccccc12)c1ccc(O)cc1 | inactive | –
CCCCc1ccc(NC(=O)N2CCN(c3cc(C)nc4ccccc34)CC2)c(C)c1 | inconclusive [inhibitor, single point] | –
O=C(COC(=O)c1ccccc1Cl)NCCC1=CCCCC1 | inactive | –
O=C(NNC(=O)C1CCCO1)c1ccc(Cl)cc1 (centres undefined) | inactive | –
COc1ccc(-c2nc3ccc(C)cn3c2Cc2cccc(Cl)c2)cc1OC | inconclusive [inhibitor, single point] | –
CCOC(=O)/C(O)=C(\C#N)c1nc2ccccc2[nH]1 | inactive | –
O=C(CCl)Nc1c[nH]c(=O)[nH]c1=O | inconclusive [inhibitor, single point] | –
O=C(O)COc1ccccc1C=NNC(=O)c1ccccc1NS(=O)(=O)c1cccs1 | inactive | –
CCn1cc2nc(SCC(=O)Nc3cccc(Cl)c3C)n(Cc3ccc(Cl)cc3)c(=O)c2n1 | inconclusive [inhibitor, full curve] | –
Nc1nccnc1C(=O)OCC(=O)Nc1ccc2[nH]c(=O)[nH]c2c1 | inactive | –
CCN(CC(=O)NCc1ccc(F)cc1)C(=O)Cc1ccc(OC)cc1 | inactive | –
CC(C)(C)NC(=O)CSc1nc2cc(S(=O)(=O)N3CCCCC3)ccc2o1 | inconclusive [inhibitor, single point] | –
O=C(CN1C(=O)NC2(CCCCC2)C1=O)NCCc1ccc(Cl)cc1Cl | inconclusive [inhibitor, single point] | –
Cc1cccc(NC(=S)N2CCC(O)CC2)c1C | inactive | –
COc1ccc(-c2csc(NC(=O)c3ccc(OCC(=O)N4CCOCC4)c(OC)c3)n2)cc1 | active: 7.31 µM | –
CCc1ccc(CNC(=O)c2ccc(NC(=O)N3CCSc4ncccc43)cc2)cc1 | inconclusive [inhibitor, single point] | –
O=C(NCc1ccc(F)cc1)c1cc(C2CCCCN2C(=O)C2CCCCC2)on1 (centres undefined) | active: 18.4 µM | –
COc1ccc(C(=O)NCc2nnc(SCC(=O)Nc3ccc(C)cc3)n2-c2ccccc2)cc1 | inconclusive [inhibitor, single point] | –
CC1(C)CC(=O)C=C(c2ccc(-c3ccccc3)cc2)C1=O | inconclusive [inhibitor, single point] | –
CC(=O)Nc1ccc(C(=O)Nc2ccc3c(c2)OCCO3)cc1 | inactive | –
O=C(Nc1cccnc1)c1cccs1 | active: 0.326 µM | –
Cc1ccc(S(=O)(=O)NC(C)C(=O)Nc2ccc(C(N)=O)cc2)cc1 (centres undefined) | inactive | –
O=C(COc1ccccc1Cl)N1CCN(c2ccc([N+](=O)[O-])c(N3CCOCC3)c2)CC1 | inconclusive [inhibitor, single point] | –
Cc1ccc(SCC(=O)Nc2ccc3oc(-c4ccc(F)cc4)nc3c2)cc1 | inconclusive [inhibitor, single point] | –
CN(C)CCNc1nc2sc3c(c2c(=O)n1CCc1ccccc1)CCCCC3 | active: 20.6 µM | –

SMILES | Potency | activity change, negative = growth inhibition
CCOC(=O)c1ccc2nc(NC(=O)c3ccco3)sc2c1 | inconclusive [inhibitor, single point] | –
CCN(CC)c1ccc(/C=N/NC(=O)OC)c(O)c1 | inconclusive [inhibitor, single point] | –
CN(CC(=O)NCCc1ccc(Cl)cc1)S(=O)(=O)c1cccs1 | inactive | –
N#CC1=C(N)Oc2cc(N)ccc2C1c1cc(Br)cs1 (centres undefined) | inconclusive [inhibitor, single point] | –
CCN1C(=O)CC(c2ccccc2)N(C2CCCC2)c2nc(Nc3ccc(C(=O)NC4CCN(C)CC4)cc3OC)ncc21 (centres undefined) | inconclusive [inhibitor, partial curve, poor fit] | –
Cc1ccc2nc(-c3ccco3)c(Nc3ccccc3)n2c1 | – | inconclusive: -32.6% [inhibitor]
CCn1cc(C(=O)NCc2ccco2)c(=O)c2cc(S(=O)(=O)N3CCC(C)CC3)ccc21 | inconclusive [inhibitor, single point] | –
O=C(NC1CCN(C(=S)NCc2ccco2)CC1)C12CC3CC(CC(C3)C1)C2 | inconclusive [inhibitor, single point] | –
c1ccc2oc(-c3csc(NCC4CCCO4)n3)cc2c1 (centres undefined) | inconclusive [inhibitor, single point] | –
COc1cc(/C=N\NC(=O)C(C)(C)O)ccc1OC/C=C/c1ccccc1 | inconclusive [inhibitor, partial curve] | –
O=c1c2ccccc2c(/C=N/c2ncn[nH]2)c(O)n1Cc1ccccc1 | inconclusive [inhibitor, single point] | –
O=CNc1cc(-c2ccoc2)cn2c(-c3ccc(F)cc3)cnc12 | active: 13 µM | –
CCOC(=O)NN1C(=O)c2ccccc2NC1c1ccc(OC)c(OC)c1 (centres undefined) | inactive | –
Cc1ccc(S(=O)(=O)NCC(=O)OCC(=O)c2ccc(Cl)s2)cc1 | inactive | –
CCC(C(=O)NCc1cccc(C)c1)n1nc(C)c2c(C)n(-c3ccccc3)nc2c1=O (centres undefined) | inconclusive [inhibitor, single point] | –
CC1CC(C)CN(C(=O)c2cc(-c3ccncc3)nc3ccccc23)C1 (centres undefined) | inconclusive [inhibitor, partial curve, poor fit] | –
Cc1ccc(S(=O)(=O)N2CCC(c3nnc(-c4cccc(C)c4)o3)CC2)cc1 | active: 3.66 µM | –
Cc1cc(C(=O)C(=O)O)c(C)n1-c1ccc(Cl)cc1 | inactive | –
O=C(C[n+]1cccc2cccc(O)c21)c1ccccc1 | inconclusive [inhibitor, single point] | –
COc1cccc(/C=N/NC(=S)NC2CC3CCC2C3)c1OC (centres undefined) | inconclusive [inhibitor, single point] | –
COc1cc(NC(=O)c2ccc(F)cc2)c(OC)cc1NC(=O)CN1CCCCC1 | inconclusive [inhibitor, single point] | –
COc1ccc(CCNCCC(c2ccccc2)c2ccccc2)cc1OC | active: 18.4 µM | –
Cc1cccc(NCc2ccc(O)c3ncccc23)c1C | inconclusive [inhibitor, single point] | –
Cc1nc2scc(-c3cccs3)c2c(=O)n1N | inactive | –
CCOc1c(C)cc(S(=O)(=O)NCc2ccccn2)c(C)c1C | inactive | –

SMILES | Potency | activity change, negative = growth inhibition
Cc1c(O)ccc2c(CN(C)Cc3ccccc3)cc(=O)oc12 | inconclusive [inhibitor, single point] | –
O=C(NN=Cc1ccc(F)c(F)c1)c1ccc(NS(=O)(=O)c2cccs2)cc1 | inactive | –
CCOc1ccc(CCNC(=O)c2ccc(C)c(-n3cnc4cccnc43)c2)cc1 | inconclusive [inhibitor, single point] | –
CCOc1cc(CNCCCN2CCOCC2)ccc1OCC(=O)Nc1cccc2ccccc12 | active: 23.1 µM | –
Cn1cnc(S(=O)(=O)N2CCCCC2c2cc(C(=O)NCc3ccc(Cl)c(Cl)c3)no2)c1 (centres undefined) | inconclusive [inhibitor, partial curve, poor fit] | –
CCOC(=O)c1c(-c2ccc(OC)cc2)csc1/N=C/C1C(=O)CCCC1=O | inactive | –
Nc1nnc(SC2CC(=O)N(c3ccccc3)C2=O)s1 (centres undefined) | active: 7.31 µM | –
CCOc1ccccc1OCC(=O)NC1CCSc2ccccc21 (centres undefined) | inconclusive [inhibitor, single point] | –
O=C(NCC1CCN(Cc2cccc(Cl)c2)CC1)C1CCCN(c2ncnc3c2nc2n3CCCCC2)C1 (centres undefined) | active: 25.9 µM | –
CCOc1ccc(Nc2cc(C)c(C#N)c3nc4ccccc4n23)cc1 | inconclusive [inhibitor, partial curve] | –
Cc1cccc(N(C)C(=O)CS(=O)(=O)c2cccc3nsnc23)c1 | inactive | –
COc1cccc(CNC(=O)c2ccc3c(Cl)c4c(nc3c2)CCCC4)c1 | inactive | –
Cc1ccc(C(C)C)c(OCc2ccc(C(=O)Nc3ccc(S(N)(=O)=O)cc3C)o2)c1 | inconclusive [inhibitor, single point] | –
CCN(C(=O)COC(=O)c1cccc(S(=O)(=O)N2CCOCC2)c1)C1CCS(=O)(=O)C1 (centres undefined) | inactive | –
Cn1c(Cc2cccc3ccccc23)nnc1SCC(=O)N1CCN(c2cccc(Cl)c2)CC1 | active: 23.1 µM | –
COc1ccc(C(C)(O)c2nc(-c3cccs3)cs2)cc1 (centres undefined) | inconclusive [inhibitor, single point] | –
CCc1noc(C)c1C(=O)N1CCC(CCC(=O)Nc2cccc(OC)c2)CC1 | active: 9.2 µM | –
Cc1ccc(S(=O)(=O)c2nc(-c3ccco3)oc2SCC(=O)c2ccc(Cl)cc2)cc1 | inconclusive [inhibitor, single point] | –
Cc1ccc2c(c1)C(c1ccncc1)=NNC(c1ccc(F)cc1)=N2 | inactive | –
CC1(C(=O)Nc2cccc3c2CCCC3)CCN1C(=O)C1(c2ccc(Cl)cc2)CC1 (centres undefined) | inconclusive [inhibitor, single point] | –
C=CCN1C(=O)C(O)(CC(=O)c2ccc(N)cc2)c2ccccc21 (centres undefined) | inconclusive [inhibitor, partial curve, poor fit] | –
S=Cc1nc2ccccc2[nH]1 | inconclusive [inhibitor, single point] | –
CCCc1nc2cccnc2n1C1CCN(C(=O)Cn2nccc2C)CC1 | – | inactive: 5.33% [at 9.04 µM]
COc1ccc(-c2cc(C(F)(F)F)nc(NCc3cccs3)n2)cc1 | inconclusive [inhibitor, single point] | –
